# Screen size: about 39,000 compounds; about 220 (0.56%) showed activity. Some of the results follow.
# System: Escherichia coli K-12 BW25113
# Assay: relative growth (OD600 normalised to plate interquartile mean) (fraction); higher = less growth inhibition, active = 0.2 or less
# Settings: 50 µM; LB; incubation time: overnight (16-24 h)
# 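Further: static incubation at 37 °C against the wild-type strain, values averaged over two biological replicates.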
row,SMILES,relative growth
1,CC(C=CC=C(C)C=CC1=C(C)C(=O)C(O)CC1(C)C)=CC=CC=C(C)C=CC=C(C)C=CC1=C(C)C(=O)C(O)CC1(C)C (stereo unspecified),inactive: 1.03
2,COc1cccc(NC(=O)N(C)C[C@@H]2Oc3ncc(C#Cc4ccncc4)cc3C(=O)N([C@H](C)CO)C[C@H]2C)c1,inactive: 0.973
3,COc1cccc(C(=O)Nc2ccc3c(c2)C(=O)N(C)[C@H]2CC[C@H](CC(=O)NCCCN4CCOCC4)O[C@@H]2CO3)c1,inactive: 1.02
4,COCC(=O)N(C)C[C@H]1Oc2cc(C#Cc3cccnc3)ccc2S(=O)(=O)N([C@H](C)CO)C[C@H]1C,inactive: 1
5,C[C@H]1CN([C@@H](C)CO)C(=O)c2cccc(NS(=O)(=O)c3ccc(F)cc3)c2O[C@H]1CN(C)Cc1ccc(-c2ccccc2)cc1,inactive: 1
6,CC(C)CNC(=O)[C@@H]1c2ccccc2C(=O)N(Cc2cc(F)cc(C(F)(F)F)c2)[C@H]1c1ccc(CO)cc1,inactive: 0.996
7,C[C@@H]1CN([C@@H](C)CO)C(=O)CCCn2cc(nn2)CO[C@@H]1CN(C)C(=O)Nc1ccc2c(c1)OCCO2,inactive: 0.988
8,C[C@@H]1CN([C@@H](C)CO)C(=O)c2cc(NC(=O)Nc3ccccc3)ccc2O[C@@H]1CN(C)CC1CCCCC1,inactive: 0.928
9,OCCN1CCN(c2ncnc3c2ncn3[C@H]2CN(Cc3ccccc3)C[C@@H](CO)O2)CC1,inactive: 1.03
10,Cc1ccc(S(=O)(=O)Nc2ccc3c(c2)C(=O)N([C@@H](C)CO)C[C@@H](C)[C@@H](CN(C)C(=O)C2CCCCC2)OCCCC[C@@H](C)O3)cc1,inactive: 0.99
11,COc1ccc(S(=O)(=O)Nc2cccc3c2O[C@@H](CN(C)Cc2ccc(-c4ccccc4)cc2)[C@@H](C)CN([C@@H](C)CO)C3=O)cc1,inactive: 1.01
12,C[C@H]1CN([C@@H](C)CO)C(=O)c2cc(C#CC3(O)CCCC3)cnc2O[C@@H]1CN(C)C(=O)Cc1ccccc1,inactive: 1.01
13,C[C@H]1CN([C@@H](C)CO)C(=O)Cc2cc(NC(=O)Cn3cnnn3)ccc2O[C@H]1CN(C)C(=O)NC1CCCCC1,inactive: 1.02
14,C[C@H]1CN([C@@H](C)CO)C(=O)CCCn2nncc2CO[C@H]1CN(C)C(=O)Nc1ccc(N2CCN(C)CC2)cc1,inactive: 0.977
15,COc1ccc(CCNC(=O)[C@@]2(c3ccccc3)CC(=O)N(Cc3ccccc3)[C@@H]2c2ccc(COC(=O)NCCCCCC(=O)NO)cc2I)cc1,inactive: 1.01
16,C[C@@H]1CN([C@@H](C)CO)C(=O)CCCn2nncc2CO[C@H]1CN(C)C(=O)c1ccc(N2CCN(C)CC2)cc1,inactive: 0.97
